Assay results reported in the supplement of paper PMC8728848.
The list shows a part of the results.

Key:
Assay in all cases: glycan array binding signal (z-score within array); higher = stronger binding
Conditions in all cases: glycan notation: IUPAC condensed, linker removed
[1] = target: Gal(b1-4)GlcNAc(b1-3)Gal(b1-4)GlcNAc(b1-3)[Gal(b1-4)GlcNAc(b1-3)Gal(b1-4)GlcNAc(b1-6)]GalNAc
In short: (§1)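 Negative Z-scores can be read as non-binding. The Z-score is calculated within each array and then averaged across arrays of one protein sequence at different concentrations or buffers and across linkers. Arrays, 3228 in all, were curated from the Consortium for Functional Glycomics database and kept only where the protein sequence was available.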

[2] = target: Gal(b1-4)GlcNAc(b1-3)Gal(b1-4)GlcNAc(b1-6)[Gal(b1-3)]GalNAc
In short: as §1

[3] = target: Gal(b1-4)GlcNAc(b1-3)Gal(b1-4)[Fuc(a1-3)]GlcNAc(b1-3)Gal(b1-4)[Fuc(a1-3)]GlcNAc
In short: as §1

[4] = target: Gal(b1-4)GlcNAc(b1-3)GalNAc
In short: as §1

[5] = target: Gal(b1-4)GlcNAc(b1-3)[Fuc(a1-3)GlcNAc(b1-6)]Gal(b1-4)Glc
In short: as §1

[6] = target: Gal(b1-4)GlcNAc(b1-3)[Gal(b1-4)GlcNAc(b1-6)]Gal(b1-4)GlcNAc
In short: as §1

[7] = target: Gal(b1-4)GlcNAc(b1-3)[GlcNAc(b1-6)]Gal(b1-4)GlcNAc
In short: as §1

[8] = target: Gal(b1-4)GlcNAc(b1-6)Gal(b1-4)GlcNAc
In short: as §1

[9] = target: Gal(b1-4)GlcNAc(b1-6)GalNAc
In short: as §1

[10] = target: Gal(b1-4)GlcNAc(b1-6)[Gal(b1-3)]GalNAc
In short: as §1

[11] = target: Gal(b1-4)GlcNAc(b1-6)[Gal(b1-4)GlcNAc(b1-3)]GalNAc
In short: as §1

[12] = target: Gal(b1-4)GlcNAc6P
In short: as §1

[13] = target: Gal(b1-6)Gal
In short: as §1

[14] = target: Gal3S(b1-3)GalNAc
In short: as §1

[15] = target: Gal3S(b1-3)GlcNAc
In short: as §1

[16] = target: Gal3S(b1-3)[Fuc(a1-4)]GlcNAc
In short: as §1

[17] = target: Gal3S(b1-4)Glc
In short: as §1

[18] = target: Gal3S(b1-4)Glc6S
In short: as §1

[19] = target: Gal3S(b1-4)GlcNAc
In short: as §1

[20] = target: Gal3S(b1-4)[Fuc(a1-3)]Glc6S
In short: as §1

[21] = target: Gal3S(b1-4)[Fuc(a1-3)]GlcNAc
In short: as §1

[22] = target: Gal3S(b1-4)[Fuc(a1-3)]GlcNAc6S
In short: as §1

[23] = target: Gal3S4S(b1-4)GlcNAc
In short: as §1

[24] = target: Gal3S6S(b1-4)GlcNAc
In short: as §1

[25] = target: Gal3S6S(b1-4)GlcNAc6S
In short: as §1

[26] = target: Gal4S(b1-4)GlcNAc
In short: as §1

[27] = target: Gal4S6S(b1-4)GlcNAc
In short: as §1

[28] = target: Gal6P(b1-4)GlcNAc
In short: as §1

[29] = target: Gal6S(b1-3)GlcNAc
In short: as §1

[30] = target: Gal6S(b1-3)GlcNAc6S
In short: as §1

[31] = target: Gal6S(b1-4)Glc
In short: as §1

[32] = target: Gal6S(b1-4)Glc6S
In short: as §1

[33] = target: Gal6S(b1-4)GlcNAc
In short: as §1

[34] = target: Gal6S(b1-4)GlcNAc6S
In short: as §1

[35] = target: GalNAc(a1-3)Gal
In short: as §1

[36] = target: GalNAc(a1-3)GalNAc
In short: as §1

[37] = target: GalNAc(a1-3)GalNAc(b1-3)Gal(a1-4)Gal(b1-4)Glc
In short: as §1

B1: DrGal9 (Danio rerio) (protein)
chain: MAFYQQPPYYNPRIPFSGPIQGGLQDGKSIIISGRVLPGANRFHVNLQCGSHSEANVALHFNPRYEDTDYVVNNSYLNRTWGSEERKYESPFAQGQTFTLQILVAQDKYKISTNGRHFMDYKHRIPFTQVDTVAVEGMVEVNSVAFQNPAGFIPPQAGYAPQYAVPPGCGFPAFPSAPNYTIPHKTVMNGGLHPGKNIVINGVVNPNAKSIIFNLCYRSGIAFHYNPRFDENVVVRNTNQMEKWGAEERFGGLPFHKGQPFQVTISCNPQHYNVFVNGKQEHTYKHRYTKLNDIDILEICGDLQLTSVQA
glycan array binding signal (z-score) [1]: 0.065 | glycan array binding signal (z-score) [2]: 0.054 | glycan array binding signal (z-score) [3]: -0.086 | glycan array binding signal (z-score) [4]: -0.316 | glycan array binding signal (z-score) [5]: 0.213 | glycan array binding signal (z-score) [6]: 1.39 | glycan array binding signal (z-score) [7]: 0.018 | glycan array binding signal (z-score) [8]: -0.084 | glycan array binding signal (z-score) [9]: -0.202 | glycan array binding signal (z-score) [10]: -0.052 | glycan array binding signal (z-score) [11]: -0.007 | glycan array binding signal (z-score) [12]: -0.383 | glycan array binding signal (z-score) [13]: -0.43 | glycan array binding signal (z-score) [14]: -0.102 | glycan array binding signal (z-score) [15]: 0.475 | glycan array binding signal (z-score) [16]: -0.381 | glycan array binding signal (z-score) [17]: -0.058 | glycan array binding signal (z-score) [18]: -0.009 | glycan array binding signal (z-score) [19]: 0.209 | glycan array binding signal (z-score) [20]: -0.331 | glycan array binding signal (z-score) [21]: -0.378 | glycan array binding signal (z-score) [22]: 0.306 | glycan array binding signal (z-score) [23]: -0.41 | glycan array binding signal (z-score) [24]: -0.365 | glycan array binding signal (z-score) [25]: -0.358 | glycan array binding signal (z-score) [26]: -0.397 | glycan array binding signal (z-score) [27]: -0.382 | glycan array binding signal (z-score) [28]: -0.374 | glycan array binding signal (z-score) [29]: -0.42 | glycan array binding signal (z-score) [30]: -0.377 | glycan array binding signal (z-score) [31]: -0.397 | glycan array binding signal (z-score) [32]: -0.401 | glycan array binding signal (z-score) [33]: -0.415 | glycan array binding signal (z-score) [34]: -0.397 | glycan array binding signal (z-score) [35]: -0.402 | glycan array binding signal (z-score) [36]: -0.378 | glycan array binding signal (z-score) [37]: -0.409
